Measurements reported in PMC4336329 (PLoS ONE, 2015).
Among all 310,000 compounds or so, about 14,000 (4.5%) showed an effect of 50% or more. Effects have a minus sign here. The list shows a part of the results.

Biological target: human ether-à-go-go-related gene (hERG) potassium channel (human, UniProt Q12809)
Assay: primary screen, population patch clamp on CHO cells stably expressing hERG
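Also: peak tail current of the secondary pulse compared with the same well before compound.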

Chain of human ether-à-go-go-related gene (hERG) potassium channel (Q12809 whole entry, looked up): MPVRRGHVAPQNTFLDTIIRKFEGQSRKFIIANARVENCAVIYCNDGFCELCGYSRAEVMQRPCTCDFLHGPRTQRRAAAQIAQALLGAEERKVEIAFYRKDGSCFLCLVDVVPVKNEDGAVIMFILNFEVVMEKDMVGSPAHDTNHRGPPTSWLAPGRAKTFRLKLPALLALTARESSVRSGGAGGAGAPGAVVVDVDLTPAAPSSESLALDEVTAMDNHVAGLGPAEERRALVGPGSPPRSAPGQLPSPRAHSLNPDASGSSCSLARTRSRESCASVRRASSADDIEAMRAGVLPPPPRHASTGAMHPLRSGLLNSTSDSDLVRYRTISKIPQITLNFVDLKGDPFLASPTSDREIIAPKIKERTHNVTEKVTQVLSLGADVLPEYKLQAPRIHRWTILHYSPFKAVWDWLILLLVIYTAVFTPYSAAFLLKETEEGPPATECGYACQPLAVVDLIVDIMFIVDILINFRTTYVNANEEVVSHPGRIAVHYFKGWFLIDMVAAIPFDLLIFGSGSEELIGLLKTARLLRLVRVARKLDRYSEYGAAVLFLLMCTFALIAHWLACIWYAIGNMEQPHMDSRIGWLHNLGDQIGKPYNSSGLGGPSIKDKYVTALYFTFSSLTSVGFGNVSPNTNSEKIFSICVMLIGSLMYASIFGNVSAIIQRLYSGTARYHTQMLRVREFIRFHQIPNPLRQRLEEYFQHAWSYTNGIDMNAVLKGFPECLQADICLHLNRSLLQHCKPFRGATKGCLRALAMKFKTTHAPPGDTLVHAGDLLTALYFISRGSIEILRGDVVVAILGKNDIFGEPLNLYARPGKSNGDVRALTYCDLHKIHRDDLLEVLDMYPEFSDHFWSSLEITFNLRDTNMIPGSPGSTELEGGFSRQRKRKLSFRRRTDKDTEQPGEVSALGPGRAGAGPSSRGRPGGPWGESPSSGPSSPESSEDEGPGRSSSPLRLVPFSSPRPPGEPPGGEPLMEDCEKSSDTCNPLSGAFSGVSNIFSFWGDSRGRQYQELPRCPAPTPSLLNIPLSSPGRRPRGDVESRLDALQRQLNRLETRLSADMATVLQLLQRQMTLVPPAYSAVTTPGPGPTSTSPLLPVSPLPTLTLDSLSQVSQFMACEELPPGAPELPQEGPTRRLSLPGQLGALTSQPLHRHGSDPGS

Compound | hERG current change (%, negative = inhibition) at 10uM
Cc1ccc(O)c(C(=O)c2cnc3onc(-c4ccc(F)cc4)c3c2)c1 | 4.58%
CC(=O)O.NCc1ccc(S(N)(=O)=O)cc1 | 18.5%
C=CCN(CC=C)C(=O)Nc1ccc2nc(C)sc2c1 | 9.53%
CCn1c(SCC(=O)N2CC(=O)Nc3ccccc32)nnc1-c1ccoc1C | 27.2%
CCCCN(C(=O)CCCc1nc2ccccc2s1)c1c(N)n(CC(C)C)c(=O)[nH]c1=O | -8.98%
Cc1ccc(NC(=O)c2nnn(-c3cc(C)cc(C)c3)c2N)cc1 | 3.11%
O=C(c1ccco1)N1CCN(c2nc(C3CC3)nc3sc4c(c23)CCCC4)CC1 | -29.7%
CC(=O)c1cccc(N2C(=O)C3C4CCC(C4=C(C)C)C3C2=O)c1 (stereo not drawn) | 21.1%
CC1CCN(c2ccc(NC(=O)c3ccc([N+](=O)[O-])o3)cc2)CC1.Cl | -4.42%
O=C(Cn1nnc(-c2ccccc2)n1)N/N=C/c1cc([N+](=O)[O-])c(Cl)cc1Cl | 10.9%
O=C(N/N=C/c1cccs1)c1ccc2ncccc2c1 | 16.7%
COC(=O)CN(C)C(=O)c1ccc(OC)c(OC2CCN(C(C)C)CC2)c1 | 13.1%
O=C(NC(=S)Nc1ccc(N2CCOCC2)c(Cl)c1)c1cncc(Br)c1 | 8.44%
COc1ccc(CC(=O)N(Cc2ccccc2)c2ccc(C)cc2)cc1OC | -43.8%
O=C(O)c1cc(NC(=O)c2ccc([N+](=O)[O-])cc2)cc(NC(=O)c2ccc([N+](=O)[O-])cc2)c1 | 10.5%
O=C(Nc1ccccc1)c1c(O)[nH]c(=S)[nH]c1=O | 16.9%
Cc1[nH]c2ccc(C(=O)OC(C)C(=O)N(C)c3ccccc3)cc2c1C (stereo not drawn) | 1.13%
CCC(=O)N(Cc1cc2ccccc2[nH]c1=O)c1ccccc1OC | 5.71%
O=C(/C=C/c1ccco1)Nc1cccc(S(=O)(=O)N2CCOCC2)c1 | -28.8%
CCC1(c2ccccc2)NC(=S)N(c2ccc(C)c(C)c2)N1 (stereo not drawn) | 27.8%
CCN(CC)CCCNC(=O)c1cn(-c2cccc(OC)c2)c(=O)c2ccccc12 | -68.5%
CC(CNC(=O)COC(=O)c1cccs1)c1ccccc1 (stereo not drawn) | 11.7%
Brc1ccc(CSc2nnc(-c3cccnc3)o2)cc1 | 11.8%
CC(C)(CN1CCN(C(c2ccccc2)c2ccccc2)CC1)NS(=O)(=O)c1ccccc1 | 1.4%
CCOC(=O)c1cnc(SCC(=O)Nc2ccc(NC(C)=O)c(OC)c2)nc1N | 2.44%
CC(=O)Nc1nnc(CCS(=O)(=O)c2ccc(C)c(C)c2)s1 | 8.73%
Cc1c(O)ccc2c(CN3CCN(CCO)CC3)cc(=O)oc12 | 3.5%

Compound | hERG current change (%, negative = inhibition) at 10uM
O=S(=O)(c1cccc(-c2nnc(-c3ccc(Br)cc3)o2)c1)N1CCCCCC1 | -12%
O=c1cc(CSc2nnc(COc3ccccc3)o2)c2ccccc2[nH]1 | -2.29%
Cc1ccc(S(=O)(=O)NC(CC(=O)O)c2ccccc2)c(C)c1 (stereo not drawn) | 5.52%
Cc1ccc(/C=C/C(=O)O)cc1S(=O)(=O)NC1CCS(=O)(=O)C1 (stereo not drawn) | 19.6%
COc1ccc(NC(=O)c2sc3nc(C)nc(N4CCN(c5ccccn5)CC4)c3c2C)cc1Cl | -3.04%
CCN(CC)Cc1c(C(=O)OC)nnn1-c1nonc1N | 11.4%
COC(=O)c1ccc(NC(=O)CSc2nnc(CNc3ccc(OC)cc3)n2C)cc1 | 9.62%
C[C@H](CCCC/C=C/C(=O)O)O[C@@H]1O[C@@H](C)[C@H](O)C[C@H]1O | 11.1%
CCN1CCN(CCNC(=O)c2ccc3c(c2)N(Cc2ccc(F)cc2)C(=O)/C(=C/c2ccccc2)S3)CC1 | -42.7%
NC(=O)CC(NC(=O)Cc1ccc(Br)cc1)c1ccc(N2CCN(c3ccc(F)cc3)CC2)c([N+](=O)[O-])c1 (stereo not drawn) | -1.81%
CC1=NN2C(=N)/C(=C\c3cc(C)n(-c4ccccc4)c3C)C(=O)N=C2S1 | 15.5%
CCC(C)c1ccc(-c2cc(C(=O)OCC(=O)Nc3cc(C)on3)c3ccccc3n2)cc1 (stereo not drawn) | 8.08%
CC(=O)Nc1ccc(NCN2C(=O)[C@@H]3[C@H]4CC[C@H](C4)[C@@H]3C2=O)cc1 | 0.927%
CCCCOc1ccc(NC(=O)CSc2cccc3cccnc23)cc1 | -6.47%
COC(=O)c1ccc(Cn2nc(C(F)(F)F)cc2C)cc1 | 2.14%
CCN1CCCC1CNCc1cccc(OC)c1OCc1ccc(F)cc1.Cl (stereo not drawn) | -69.5%
CCOC(=O)c1sc(-c2ccccc2)cc1NC(=O)c1ccc(S(=O)(=O)N(CCOC)CCOC)cc1 | 4.24%
CCOC(=O)C1=C(COC(=O)c2cc(Br)c(Br)s2)NC(=O)NC1C (stereo not drawn) | -3.78%
CCCNC(=O)CS(=O)(=O)c1ccccc1 | 2.32%
CCn1nc(C)c(/C=N/NC(=S)Nc2ccc(Cl)cc2Cl)c1C | -0.726%
COc1ccc(CC(=O)N/N=C/c2sccc2C)cc1 | 10.7%
CC(=O)OC(C(=O)NCCc1ccccc1)c1cccnc1 (stereo not drawn) | 0.852%
CCOC(=O)c1ccc(NC(=S)NNC(=O)COC)cc1 | -2.29%
COc1ccccc1N1CCN(/N=C/C=C/c2ccccc2[N+](=O)[O-])CC1 | 8.53%
COc1ccccc1-c1cc(N)n(S(=O)(=O)c2cccc3nsnc23)n1 | -6.58%
CC(=O)Oc1cccc(N2C(=O)c3cccc4c([N+](=O)[O-])ccc(c34)C2=O)c1 | 9.47%
O=S(=O)(Nc1ccc2ccccc2c1)c1ccccc1 | 1.5%
